Laboratory results published in PubChem BioAssay AID1030 (National Center for Advancing Translational Sciences (NCATS), 2008).
Hit rate of the full screen: of about 220,000 compounds, about 16,000 (7.3%) were called active. This list was built around the results that the source calls inconclusive (neither active nor inactive); the mix of calls is not that of the screen. Calls follow the shape of the dose curve; as a rule, active = well fitted inhibition curve with a large enough effect (not every such curve was filed as active); inconclusive = small, poorly fitted or top-dose-only effect, or another doubt; inactive = no such curve, though single readings can be large or run the other way. Potencies of inconclusive entries are left out as doubtful fits.

molecular target: Aldehyde dehydrogenase 1A1 (Homo sapiens) (UniProt P00352); test: qHTS Assay for Inhibitors of Aldehyde Dehydrogenase 1 (ALDH1A1); conditions: Purified ALDH1A1, NADH fluorescence, propionaldehyde substrate; series mostly up to 75.3 µM
Potency is read from the fitted curve at half-maximal effect; tags tell the direction and shape of the fitted curve.

UniProt P00352, sequence (P00352 whole entry, looked up): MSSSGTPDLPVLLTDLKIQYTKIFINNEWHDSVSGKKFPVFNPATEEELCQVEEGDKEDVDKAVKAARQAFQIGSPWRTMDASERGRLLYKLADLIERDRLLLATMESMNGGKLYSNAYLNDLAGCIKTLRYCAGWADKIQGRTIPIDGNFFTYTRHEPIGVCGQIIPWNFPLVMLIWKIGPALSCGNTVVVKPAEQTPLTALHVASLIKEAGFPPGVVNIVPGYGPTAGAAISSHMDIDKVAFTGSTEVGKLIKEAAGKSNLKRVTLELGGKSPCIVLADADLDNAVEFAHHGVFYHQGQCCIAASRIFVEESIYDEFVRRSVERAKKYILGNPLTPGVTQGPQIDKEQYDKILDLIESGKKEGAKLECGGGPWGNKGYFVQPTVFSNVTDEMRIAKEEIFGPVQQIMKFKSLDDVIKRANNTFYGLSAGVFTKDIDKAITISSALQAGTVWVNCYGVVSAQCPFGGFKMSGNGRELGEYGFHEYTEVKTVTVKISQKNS

SMILES	Potency
Cc1cccn2c(=O)c3cc(C(=O)N(C)C)n(C)c3nc12	inconclusive [inhibitor, partial curve]
CC(=O)N1CCN(c2cc(N3CCc4ccccc4C3)c(F)cc2[N+](=O)[O-])CC1	inconclusive [inhibitor, single point]
CN1CCN(S(=O)(=O)c2ccc(NC(=O)Nc3cccc(Cl)c3)cc2)CC1	inactive
Cc1nnc(Sc2cc(NCCO)c([N+](=O)[O-])c3nonc23)s1	inactive
COc1cccc2sc(NNC(=O)C3COc4ccccc4O3)nc12 (stereo not given)	inconclusive [inhibitor, single point]
CCc1nc2oc(C(=O)c3ccccc3)c(N)c2c2c1COC(C)(C)C2	inconclusive [inhibitor, single point]
CCC(C)NC(=O)CSc1nc(-c2cccs2)cc(C(F)(F)F)n1 (stereo not given)	inactive
COc1ccc(C2C(C#N)=C(N)N(c3sc4c(c3C#N)CCCC4)C3=C2C(=O)CC(C)(C)C3)cc1 (stereo not given)	inconclusive [inhibitor, partial curve]
O=C(COC(=O)CNC(=O)c1ccccc1F)Nc1cccnc1Cl	inactive
O=C(COc1ccc([N+](=O)[O-])cc1)NNC(=S)NC(=O)c1ccc(Br)cc1	active: 8.91 µM
CCOC(=O)Nc1ccc2nc3n(c(=O)c2c1)CCCCC3	inconclusive [inhibitor, single point]
FCCCOc1ccc(CN2CCN(c3ccccc3F)CC2)cc1	inactive
CCOc1cc(N2CCOCC2)c(OCC)cc1NC(=O)COC(=O)c1cccc2ccccc12	inconclusive [inhibitor, single point]
CSC1=C(C#N)C(c2ccc(C(C)C)cc2)CC(=O)N1 (stereo not given)	inconclusive [inhibitor, partial curve, poor fit]
CNC(=S)N/N=C(\C)c1ccc(C)c(C)c1	inconclusive [inhibitor, full curve]
CSc1nnc(C)c(=O)n1COC(=O)c1ccccc1	inactive
Cc1ccc(/C=N/NC(=O)CSc2nnc(-c3ccccc3)n2-c2ccc(Cl)cc2)o1	inconclusive [inhibitor, single point]
Cc1nc([N+](=O)[O-])c(Sc2nc3ccccc3n2C)n1Cc1ccccc1	inactive
CN1/C(=C\C(=O)COC(=O)CNC(=O)c2ccc3ccccc3c2)C(C)(C)c2ccccc21	inconclusive [inhibitor, single point]
COC(=O)c1ccccc1NC(=O)Cn1nc2n(C)c3ccccc3n2c(=O)c1=O	inactive
O=[N+]([O-])c1ccccc1/C=C/C=N/n1c(-c2cc(-c3ccccc3)n[nH]2)n[nH]c1=S	inactive
Cc1ccc(NC(=O)c2cc3c(s2)CCC3)cc1S(=O)(=O)N1CCOCC1	active: 1.12 µM
CCOc1ccc(/C=C/C(=O)c2cc(Br)ccc(=O)c2O)cc1	inconclusive [inhibitor, partial curve]
O=C1CC(c2cccs2)CC2=C1C(c1ccccc1)n1ncnc1N2 (stereo not given)	inconclusive [inhibitor, partial curve]
N#Cc1c(N)nc2c(c1N)CC(COc1ccccc1)O2 (stereo not given)	inactive

SMILES	Potency
CC(C)(C)c1ccc(NC(=O)COC(=O)c2ccc(NS(=O)(=O)c3ccc(F)c(F)c3)cc2)cc1	inactive
C(=C\c1cccc2ccccc12)/c1nnc(-c2cccs2)o1	inconclusive [inhibitor, partial curve]
O=C(Nc1ccccc1)c1cccc(S(=O)(=O)N2CCCCC2)c1	inconclusive [inhibitor, single point]
COc1ccc(-c2cc(C3CCN(c4ncccc4[N+](=O)[O-])CC3)[nH]n2)cc1	inconclusive [inhibitor, single point]
NC(=S)NNC(N)=S	inconclusive [inhibitor, single point]
O=C(CSCc1ccc(Cl)cc1)N1CCN(Cc2ccc3c(c2)OCO3)CC1	inactive
CCOC(=O)C1CCN(C(=O)Cn2cc(C#N)c3ccccc32)CC1	inconclusive [inhibitor, single point]
O=C(O)c1cc(NS(=O)(=O)c2ccc3ccccc3c2)ccc1O	inconclusive [inhibitor, single point]
Cc1cc(-c2ccc(N=Nc3cc(S(=O)(=O)O)c4ccccc4c3N)c(C)c2)ccc1N=Nc1cc(S(=O)(=O)O)c2ccccc2c1N	inconclusive [inhibitor, single point]
CN(C)S(=O)(=O)c1cc(NC(=O)CN2CCc3ccccc32)ccc1Cl	active: 1.58 µM
CN(C)C(=O)COC(=O)c1cccc(CN2C(=O)c3ccccc3C2=O)c1	inactive
CN1CCN(C=Nc2nc3ccccc3nc2N2CCCC2)CC1	inconclusive [inhibitor, single point]
COc1ccc(CNC(=S)Nc2ccc(-c3ccccc3)cc2)cc1	inactive
C=CCn1c(SCC(=O)NC2CCCC2)nc2scc(-c3ccco3)c2c1=O	active: 7.94 µM
COc1ccc(S(=O)(=O)NCCSCc2cccs2)cc1	active: 1 µM
COC1(C#CC2C=CC(OC(C)=O)C(COC(C)=O)O2)CCCCC1 (stereo not given)	inconclusive [inhibitor, partial curve]
O=S(=O)(c1cccc(NC(=S)NCc2ccco2)c1)N1CCOCC1	inconclusive [inhibitor, single point]
O=C1/C(=C\c2ccc(Br)o2)Cc2ccccc21	inconclusive [inhibitor, single point]
O=C(N/N=C/c1ccc(OCc2ccccc2)cc1)c1cccs1	inconclusive [inhibitor, partial curve]
O=C(Nc1ccccc1N1CCCCC1)c1ccc2nccnc2c1	inconclusive [inhibitor, single point]
CCc1ccc2[nH]c(=O)c(CN(Cc3ccc(F)cc3)C(c3nnnn3CCN3CCOCC3)C(C)C)cc2c1 (stereo not given)	inconclusive [inhibitor, partial curve]
CC(=O)c1c(C)[nH]c(C(=O)CSc2nnc(-c3cccs3)n2Cc2ccccc2)c1C	active: 12.6 µM
O=C(O)c1cc(Cl)cc(Cc2cc(Cl)cc(C(=O)O)c2O)c1O	inconclusive [inhibitor, partial curve]
Cc1cc(C)cc(-n2c(C)cc(/C=C3\C(=N)N4N=C(CC(C)C)SC4=NC3=O)c2C)c1	inconclusive [inhibitor, single point]
Cc1ccc(O)c(-c2cc(-c3ccccc3C)[nH]n2)c1	inactive

SMILES	Potency
Cc1nc2ccccc2c(=O)n1NC(=O)C1CC1C (stereo not given)	inactive
CCOC(=O)c1ccc(NC(=S)N2CCSC2c2ccc(OC)cc2)cc1 (stereo not given)	inconclusive [inhibitor, partial curve]
COC(=O)c1sccc1NC(=O)Cn1cnc2c1c(=O)n(C)c(=O)n2C	inactive
O=C(CSc1nnnn1-c1ccccc1)CSc1nnnn1-c1ccccc1	active: 3.16 µM
COc1ccc(CNc2oc(-c3cccc4ccccc34)nc2C#N)cc1	inconclusive [inhibitor, partial curve]
CCn1c(COc2ccc(Cl)cc2)nnc1SCc1ccc(C#N)cc1	inactive
COc1cccc(CCc2nnc(CCC(=O)NCCc3cccc(C)n3)o2)c1	inconclusive [inhibitor, partial curve]
CCCNC(=O)COC(=O)/C=C/c1ccc2c(c1)OCO2	inconclusive [inhibitor, partial curve]
N#Cc1nc(-c2ccc(OCc3ccccc3)cc2)oc1NCCN1CCOCC1	inconclusive [inhibitor, partial curve]
Cc1nc2sccn2c1-c1csc(NCc2ccccc2)n1	active: 11.2 µM
C/C(=N\OCC(=O)N/N=C/c1ccccc1)c1cccs1	inactive
Cc1ccc(S(=O)(=O)c2nnn3c2nc(N2CCCCC2)c2ccccc23)cc1	inconclusive [inhibitor, partial curve]
CCCOc1cccc(C(=O)NC(=S)Nc2ccccc2)c1	active: 17.8 µM
CC(C)(C)C1CCc2c(sc(NC(=O)CSc3ncn[nH]3)c2C#N)C1 (stereo not given)	active: 8.91 µM
COc1ccc(C2C3=C(CC(C)(C)CC3=O)Oc3ncn(CCCn4ccnc4)c(=N)c32)cc1 (stereo not given)	inactive
CCOC(=O)c1c(C)nc(C)c(C(=O)OCC)c1-c1ccc(Br)cc1	inactive
CSc1ncccc1C(=O)Nc1ccc(S(=O)(=O)NC2=NCCCCC2)cc1	active: 8.91 µM
Cc1ncsc1CCOC(=O)c1ccc(N2CCOCC2)c([N+](=O)[O-])c1	inconclusive [inhibitor, single point]
Cc1cccc(CN2CCN(C(=O)CCl)CC2)c1	active: 0.316 µM
CCCCNCC	inactive
O=C(NCc1ccco1)C1CC(=O)N(c2ccc(Cl)cc2)C1 (stereo not given)	inactive
COc1ccc(S(=O)(=O)Nc2cc3c(C(C)=O)c(C)oc3c3ccccc23)cc1	inconclusive [inhibitor, full curve]
COc1ccc(/C=C/C(=O)NCCc2ccc(S(N)(=O)=O)cc2)cc1	active: 10 µM
COc1ccc(-n2c(-c3ccco3)n[nH]c2=S)cc1	inconclusive [inhibitor, single point]
COc1nc(N)c(S(=O)(=O)c2ccccc2C)cc1C#N	inconclusive [inhibitor, single point]
